Assay results taken from PubChem BioAssay AID588689 (Southern Research Specialized Biocontainment Screening …, 2011).
Hit rate of the full screen: of about 340,000 compounds, about 1,000 (0.29%) were called active. The shares of active, inactive and inconclusive entries below differ from those in the screen. No stated cut-off is given here; in the data, inconclusive means inhibition above about 29% without an active follow-up result; inactive means below that.

Each compound was assayed against Genome polyprotein (Dengue virus type 2 (strain 16681-PDK53)) (UniProt P29991) (assay: Dengue-2 NS5 methyltransferase inhibitors, primary screen, biochemical, confirmation dose response (AID 588689)). Details: Dengue-2 NS5 methyltransferase capping enzyme assay, at 25 µM, hits give high values.
For `O=c1c2c(C(F)(F)F)cc(C(F)(F)F)nc2[nH]n1-c1ccccc1`, the inhibition was inactive: 12%. For `COc1ccc(-c2cc(C(F)(F)F)nc(NCc3cccs3)n2)cc1`, the inhibition was inactive: -0.64%. With `CC(C)(C)OC(=O)COc1cc(F)ccc1[N+](=O)[O-]` the inhibition was inactive: -8.99%. With `CN(C)c1ccc(N=Cc2nc(-c3ccccc3)oc2OC(=O)c2cccc(Br)c2)cc1` the inhibition was inconclusive: 42.4%. With `CCCCC1OC23CCCCC2C(C#N)(C#N)C1(C#N)C(=N)O3` (stereo not drawn) the inhibition was inconclusive: 32.5%. In the case of `N=c1n(CCN2CCCC2)c2ccccc2n1CC(O)c1ccco1` (stereo not drawn), the inhibition is reported as inconclusive: 68.9%. `CCCCCc1cc(O)c2c(C)cc(=O)oc2c1` was tested, and the inhibition was inconclusive: 92.2%. `O=[N+]([O-])c1ccc(N/N=C/C=C/c2ccco2)cc1` was tested, and the inhibition was inconclusive: 43.6%. In the case of `COc1cc(/C=C2/C(=O)N(c3cccc(Br)c3)N=C2C)cc(OC)c1O`, the inhibition is reported as inactive: -25.2%. In the case of `O=C(Nc1ccc(C(F)(F)F)cc1)C1CCCCN1S(=O)(=O)c1ccccc1` (stereo not drawn), the inhibition is reported as inactive: -9.59%. `CCOC(=O)Cc1csc(NC(=O)c2sc3nc4c(C)cc(C)cc4cc3c2N)n1` was tested, and the inhibition was inconclusive: 77.1%. In the case of `Oc1ccc(CN2CCCCC2)nc1-c1ccccc1`, the inhibition is reported as inactive: -3.27%. `Cc1ccc(/C=C/c2nc3sc(C(=O)O)c(C)c3c(=O)[nH]2)cc1[N+](=O)[O-]` was tested, and the inhibition was inactive: -2.44%. With `Nc1ccc(S(=O)(=O)NC2=NCCCCC2)cc1N` the inhibition was inconclusive: 34.1%. In the case of `O=[N+]([O-])c1cc(-c2ccc(/C=N/n3cnnc3)o2)ccc1Cl`, the inhibition is reported as inconclusive: 67.7%. `CCCCC[C@@H]1C=C(C(=O)O)[C@H](c2ccc(C)cc2)N1S(=O)(=O)c1ccc(C)cc1` was tested, and the inhibition was inactive: 10.4%. `Cc1ccc2c(c1)c(/C=C/c1cc[n+](C)cc1)c(C)n2C` was tested, and the inhibition was inconclusive: 171%. `CC(=O)Nc1ccc(S(=O)(=O)Nc2nc3ccccc3nc2-n2ccc(=NC(=O)c3ccc(F)cc3)cc2)cc1` was tested, and the inhibition was inconclusive: 48.1%. With `COc1cc(/C=C/C(=O)OCC(=O)Nc2cc(S(=O)(=O)N3CCOCC3)ccc2Cl)cc(OC)c1OC` the inhibition was inconclusive: 50.1%. In the case of `C=CCN1C(=O)c2cccc3c(N4CCCCC4)ccc(c23)C1=O`, the inhibition is reported as inconclusive: 60.4%. `Cc1ccc(S(=O)(=O)N2[C@@H](c3ccccc3)C(C(=O)O)=CC[C@H]2c2ccc(Cl)c(Cl)c2)cc1` was tested, and the inhibition was inactive: 10.4%. `N=C1/C(=C\c2coc3ccccc3c2=O)C(=O)N=C2SC=CN12` was tested, and the inhibition was inconclusive: 197%. `CCn1c(/C=C/c2cc[n+](C)cc2)nc2ccccc21` was tested, and the inhibition was inconclusive: 38.9%. In the case of `C=CCn1c(=O)[nH]c2nc3cc(N=CN(C)C)c(C)cc3nc2c1=O`, the inhibition is reported as inconclusive: 68.8%. `CC(C)C1OC2(C)OC(=N)C1(C#N)C(C#N)(C#N)C2c1ccccc1` (stereo not drawn) was tested, and the inhibition was inconclusive: 46.1%. With `COc1cc(C=C2C(=O)c3ccccc3C2=O)cc(OC)c1OC` the inhibition was inconclusive: 93.1%. For `Cc1ccccc1NC(=O)C1CCC(=O)N1` (stereo not drawn), the inhibition was inactive: -6.11%. With `CCOC(=O)/C=c1/s/c(=C/c2ccc3cc(OC)ccc3c2)c(=O)n1CC(=O)NCc1ccc2c(c1)OCO2` the inhibition was inconclusive: 39.8%. For `Cc1ccccc1NC1=C/C(=N\S(=O)(=O)c2ccc(C(=O)O)cc2)c2ccccc2C1=O`, the inhibition was inconclusive: 77%. In the case of `CN(C)c1ccc(-c2nnc(-c3ccc(S(=O)(=O)C(F)F)cc3)o2)cc1`, the inhibition is reported as inconclusive: 31.1%. `COc1ccc(C2c3ccc(O)cc3Oc3ncn(CCN4CCOCC4)c(=N)c32)cc1OC` (stereo not drawn) was tested, and the inhibition was inconclusive: 91%. `CCOc1ccc(-c2cn(-c3ccc(OC)cc3)c(SC)n2)cc1` was tested, and the inhibition was inactive: -2.59%. With `Cc1cccn2c(=O)c3cc(C(=O)NCC4CCCO4)c(=N)n(Cc4ccc(F)cc4)c3nc12` (stereo not drawn) the inhibition was inconclusive: 29%. With `C=CCNC(=O)C(C#N)c1nc2ccccc2nc1N1CCCCCC1` (stereo not drawn) the inhibition was inconclusive: 46.5%. `COc1ccc(N=Nc2ccc(N)nc2N)cc1` was tested, and the inhibition was inactive: 1.3%. With `C/C(=N\Nc1ncnc2sc(C)c(C)c12)c1ccccn1` the inhibition was inconclusive: 51.9%. For `CCOC(=O)c1c(/N=C/c2cccc([N+](=O)[O-])c2O)sc2c1CCC2`, the inhibition was inactive: 25.2%. In the case of `CCCCNc1ccc2c3c(cccc13)C(=O)N(CCCC)C2=O`, the inhibition is reported as inconclusive: 41.6%. With `O=C(CNC(=O)c1ccc(Br)o1)NNC(=O)COc1ccccc1Cl` the inhibition was inactive: 1.1%. `CCCCC(=O)OCC(=O)C1(O)Cc2c(O)c3c(c(O)c2C(OC2CC(NC(=O)C(F)(F)F)C(O)C(C)O2)C1)C(=O)c1c(OC)cccc1C3=O` (stereo not drawn) was tested, and the inhibition was inconclusive: 52.6%. `CCCCOC(=O)Cn1c2ccc(OC)cc2c2nc3ccccc3nc21` was tested, and the inhibition was inconclusive: 95.8%. In the case of `CC(C)CC1=NN2C(=N)/C(=C\c3coc4ccccc4c3=O)C(=O)N=C2S1`, the inhibition is reported as inconclusive: 167%. For `Cc1ccc(S(=O)(=O)N2CCC[C@H]2C(=O)OCC(=O)c2ccc3c(c2)NC(=O)CO3)cc1`, the inhibition was inactive: -4.71%. With `CN1\C(=C/C=C/C=C/C=[N+](C)C)C(C)(C)c2ccccc21` the inhibition was inconclusive: 107%. With `CCN(CC)c1ccc(/C=C/C(=O)C2C(=O)C=C(C)OC2=O)cc1` (stereo not drawn) the inhibition was inconclusive: 154%. In the case of `Cc1ccc(-n2c(-c3ccc(Cl)cc3Cl)n[nH]c2=S)cc1`, the inhibition is reported as inactive: -16.5%. For `O=c1nc2c(O)cccn2c2c1c(=O)[nH]c1ccccc12`, the inhibition was inconclusive: 51.3%. In the case of `Cc1[nH]c(C)c(S(=O)(=O)N(Cc2ccccc2)C(C)C)c1C(=O)N1CCCC1`, the inhibition is reported as inactive: -0.98%. With `CC(C)CN(CC(C)C)c1ccc(/C=N/n2cnnc2)cc1[N+](=O)[O-]` the inhibition was inactive: -1.82%. In the case of `COc1ccc(S(=O)(=O)C(C#N)c2nc3ccccc3nc2N2CCCC(C)C2)cc1` (stereo not drawn), the inhibition is reported as inconclusive: 59.6%. In the case of `COc1ccc(/C=c2\sc3nc(-c4ccccc4OC)nn3c2=O)c(OC)c1`, the inhibition is reported as inconclusive: 41.2%. `CCC1OC2(C)OC(=N)C1(C#N)C(C#N)(C#N)C2c1ccccc1` (stereo not drawn) was tested, and the inhibition was inconclusive: 54.4%. For `CC(C)CSC1=NSC2=NC(=O)/C(=C\c3coc4ccccc4c3=O)C(=N)N12`, the inhibition was inconclusive: 182%. With `O=C(CN1CCN(C(c2ccccc2)c2ccccc2)CC1)NC(=O)NCc1ccco1` the inhibition was inactive: -1.64%. `Cc1ccc(OCC(=O)NCCNC(=O)c2cnccn2)cc1C` was tested, and the inhibition was inactive: -4.45%. In the case of `CC(/C=C1\SC(=S)N(NC(=O)c2ccc(O)cc2)C1=O)=C\c1ccccc1`, the inhibition is reported as inactive: 2.55%. With `O=C(CN1C(=O)c2ccccc2S1(=O)=O)Nc1ncc(Cl)cc1Cl` the inhibition was inconclusive: 37.2%. `COc1ccc2cc(CCNC(=O)CCc3ccccc3)c(=O)[nH]c2c1` was tested, and the inhibition was inactive: 0.89%. With `COCCCn1c(=NC(=O)c2ccccc2)c(C#N)cc2c(=O)n3cccc(C)c3nc21` the inhibition was inconclusive: 66%. In the case of `CC(C)c1ccc(S(=O)(=O)N2CCN(C(=O)CCNS(=O)(=O)c3ccccc3F)CC2)cc1`, the inhibition is reported as inactive: 2.2%. With `O=C(O)CCn1cc(/C=C2/NC(=S)N(c3ccccc3)C2=O)c(-c2ccccc2)n1` the inhibition was inactive: 2.91%. In the case of `CC(C)c1nnc(N2C(=O)C(O)=C(C(=O)c3cccs3)C2c2ccccc2)s1` (stereo not drawn), the inhibition is reported as inconclusive: 93.4%. For `CCC(C)Oc1ccc(/C=C/c2[nH]c(=O)[nH]c(=O)c2[N+](=O)[O-])cc1OC` (stereo not drawn), the inhibition was inconclusive: 37.5%. For `CC1=NN(c2ccc(C(=O)O)cc2)C(=O)/C1=C/c1ccc(-c2ccccc2F)o1`, the inhibition was inactive: 51.9%. For `Cc1cc(C)c(NC(=O)CN2C(=O)NC3(CCCCC3)C2=O)c(Cl)c1`, the inhibition was inactive: -4.81%. With `C=CCc1cccc(/C=N/n2cnnc2)c1O` the inhibition was inconclusive: 33.8%. `Cc1occc1C(=O)N/N=C/C1=C(N2CCOCC2)C(=C/c2ccc(Cl)cc2Cl)/CC1` was tested, and the inhibition was inconclusive: 57.1%. For `CCCNc1c(F)c(F)c2c(C)c3ccccc3nc2c1F`, the inhibition was inconclusive: 65.1%. In the case of `C(=Nc1cccc2c(N=Cc3ccco3)cccc12)c1ccco1`, the inhibition is reported as inconclusive: 105%. `COC(C(=O)C(O)C(C)O)C1Cc2cc3cc(OC4CC(OC5CC(O)C(O)C(C)O5)C(O)C(C)O4)c(C)c(O)c3c(O)c2C(=O)C1OC1CC(OC2CC(OC3CC(O)C(OC)C(C)O3)C(O)C(C)O2)C(O)C(C)O1` (stereo not drawn) was tested, and the inhibition was inconclusive: 36.7%. With `Cc1noc(C)c1CSCC(=O)Nc1nc2ccc(S(C)(=O)=O)cc2s1` the inhibition was inactive: -2.95%. For `CCN1CC=C2C(C#N)=C(N)C(C#N)(C#N)[C@H](c3ccoc3)[C@H]2C1`, the inhibition was inconclusive: 112%. For `CCOC(=O)Cn1c(=NC(=O)c2ccc([N+](=O)[O-])s2)sc2ccccc21`, the inhibition was inconclusive: 80.3%. `COc1ccc(OC)c2cc3ccccc3cc12` was tested, and the inhibition was inconclusive: 146%. For `CCOc1ccc(-c2nn(-c3ccccc3)cc2/C=C2\SC(=S)N(C3CCS(=O)(=O)C3)C2=O)cc1` (stereo not drawn), the inhibition was inconclusive: 80.2%. In the case of `CCOC(=O)c1sc(-c2ccc(C(F)(F)F)cc2)nc1O`, the inhibition is reported as inconclusive: 42.9%. `CCOc1cc(-c2ccc(N)c(OCC)c2)ccc1N` was tested, and the inhibition was inconclusive: 71.4%. With `C=CCNc1sc(C(=O)c2ccc(Br)s2)c(N)c1C#N` the inhibition was inconclusive: 29.2%. With `O=C(NCc1ccccc1)N1CCC(CO)(CCc2ccccc2)CC1` the inhibition was inactive: 5.32%. `S=C(Nc1ccc(N2CCOCC2)cc1)Nc1ccc2nc(-c3ccco3)c(-c3ccco3)nc2c1` was tested, and the inhibition was inconclusive: 166%. For `CCCCCCN1C[C@H](n2cc(C3CC3)nn2)[C@@H](O)C[C@@H]1c1ccc(C)cc1`, the inhibition was inactive: 0%. For `Cc1cc2nc3c(=O)[nH]c(=O)[nH]c3nc2c([N+](=O)[O-])c1N`, the inhibition was inconclusive: 198%. For `C=CCn1c(=N)c(S(=O)(=O)c2ccc(C)c(C)c2)cc2c(=O)n3ccccc3nc21`, the inhibition was inconclusive: 148%.
